# These are enrichments in a pooled selection; single values are uncertain.
# Tested on: NB7
# Experiment: fold depletion of shRNA, plasmid library share / infected cells without Dox share (9 days) (ratio); higher = more depleted after infection (more toxic, leaky expression from a Tet-inducible vector; NB7 is a neuroblastoma line without caspase-8)
# Experimental: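 Pooled lethality screen in NB7 neuroblastoma cells infected with Dox-inducible pTIP shRNA libraries. The libraries tile every 21-mer of the Venus, CD95L or CD95 ORF / 3'UTR; each hairpin is the 21-nt sense sequence + CTCGAG loop + antisense. Cells were cultured 9 days with or without 100 ng/ml Dox. shRNA representation was measured by deep sequencing of the genomic inserts, normalised to the total reads per subpool and averaged over technical replicates. Fold depletion is the plasmid library share / infected cells without Dox share (mean of 2 biological replicates), and the -Dox/+Dox share ratio is the mean of 4 replicate pairings; higher values mean more depletion (toxicity).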
# [1] = shRNA pool: CD95L ORF + CD95L 3'UTR + Venus libraries
# [2] = shRNA pool: CD95 ORF + CD95 3'UTR + Venus libraries
# 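Note: shRNA barcodes quantified by deep sequencing of PCR amplicons from cellular DNA, counts expressed as percent of each subpool, ratio averaged over two biological duplicates.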
sequence,measurement,setting,value
ATTAGGAAAATATGGGTTGCA,fold depletion of shRNA,[1],14.8
ATTAGTGTTTGAAAAGATTCT,fold depletion of shRNA,[2],1.53
ATTATAAAATATAGGTAAAAG,fold depletion of shRNA,[2],0.727
ATTATAATGTTTGACTATTAT,fold depletion of shRNA,[2],0.91
ATTATACAATATTTCAATTGT,fold depletion of shRNA,[2],0.982
ATTATATATGTGTATGCATTT,fold depletion of shRNA,[2],0.781
ATTATCGTCCAAAAGTGTTAA,fold depletion of shRNA,[2],1.18
ATTATGATTCTTTGTTACAGG,fold depletion of shRNA,[1],1.43
ATTATGCTCTGGCATCTAACA,fold depletion of shRNA,[2],2.57
ATTCAAACTTCAGAAATGAAA,fold depletion of shRNA,[2],0.63
ATTCACATAGAAAACATTAAA,fold depletion of shRNA,[2],0.752
ATTCAGACTATCATCCTCAAG,fold depletion of shRNA,[2],1.22
ATTCAGTGAGGGTCTTCTTAC,fold depletion of shRNA,[1],1.84
ATTCAGTTCTGAGTATATGCA,fold depletion of shRNA,[2],1.38
ATTCCAAAGTATACTTCCGGG,fold depletion of shRNA,[1],2.98
ATTCCACTAATTGTTTGGGTG,fold depletion of shRNA,[2],0.989
ATTCCTAACACAGCATGTGTA,fold depletion of shRNA,[1],2.11
ATTCTAGAGATTTTACCATAT,fold depletion of shRNA,[2],0.797
ATTCTAGCCTGGTTTGGAGAT,fold depletion of shRNA,[2],2.74
ATTCTCCTTACTACTATCCTA,fold depletion of shRNA,[2],0.791
ATTCTGCCTCCAAGGATGTTT,fold depletion of shRNA,[2],4.31
ATTCTGTAGTATGAATGTAAT,fold depletion of shRNA,[2],0.844
ATTCTTAATAGCTGGCTGTAA,fold depletion of shRNA,[2],0.853
ATTCTTATTTTTCCCCCACCC,fold depletion of shRNA,[2],1.4
ATTCTTTCCATTATGATTCTT,fold depletion of shRNA,[1],0.491
ATTCTTTGTTACAGGCACCGA,fold depletion of shRNA,[1],2.86
ATTGAAAAGGACACCTTTTAA,fold depletion of shRNA,[1],0.662
ATTGAGGAAGACTGTTACTAC,fold depletion of shRNA,[2],1.07
ATTGATTAAAGATCTCAAAAA,fold depletion of shRNA,[2],0.656
ATTGATTGTCAGCTACTAATG,fold depletion of shRNA,[1],2.16
ATTGCTGGAGTCATGACACTA,fold depletion of shRNA,[2],1.64
ATTGGAATTGAGGAAGACTGT,fold depletion of shRNA,[2],1.34
ATTGGCATCAACTTCATGGAA,fold depletion of shRNA,[2],1.59
ATTGGGCCTGGGGATGTTTCA,fold depletion of shRNA,[1],1.29
ATTGGTGTCATATTATACAAT,fold depletion of shRNA,[2],0.817
ATTGTAGGGGTGTGTGTGTGT,fold depletion of shRNA,[1],0.916
ATTGTCAGCTACTAATGATGT,fold depletion of shRNA,[1],2.27
ATTGTCCTGCTTTCTGGAGTG,fold depletion of shRNA,[1],1.67
ATTGTGAAGTACATATTAGGA,fold depletion of shRNA,[1],0.665
ATTGTGAATTCACATAGAAAA,fold depletion of shRNA,[2],0.816
ATTGTGTGATGAAGGACATGG,fold depletion of shRNA,[2],3.3
ATTGTTTGGGTGAAGAGAAAG,fold depletion of shRNA,[2],0.874
ATTTAAATAAGGCTCTACCTC,fold depletion of shRNA,[2],3.11
ATTTAACAGGCAAGTCCAACT,fold depletion of shRNA,[1],1.83
ATTTAAGATTCTCCTTACTAC,fold depletion of shRNA,[2],1.26
ATTTAAGGGATGGAAAAGGAA,fold depletion of shRNA,[1],3.57
ATTTAGGAATTGCTCTTGTCA,fold depletion of shRNA,[2],1.74
ATTTAGGCAGATTGAAAAGGA,fold depletion of shRNA,[1],2.42
ATTTATATGTCAACGTATCTG,fold depletion of shRNA,[1],0.926
ATTTATATTTCTGTAAATGTA,fold depletion of shRNA,[2],1.13
ATTTATCTGATGTTGACTTGA,fold depletion of shRNA,[2],1.24
ATTTATGGAGGATTTTTTTGC,fold depletion of shRNA,[2],0.708
ATTTATGTAAAGTATATGTAT,fold depletion of shRNA,[2],0.579
ATTTATGTAGATGTGCATTTT,fold depletion of shRNA,[1],0.985
ATTTATTAGCGCTGAAGAGCC,fold depletion of shRNA,[2],2.12
ATTTCAATTGTGAATTCACAT,fold depletion of shRNA,[2],0.771
ATTTCATTCCTAACACAGCAT,fold depletion of shRNA,[1],1.1
ATTTCCAGTGCAATTGTAGGG,fold depletion of shRNA,[1],1.24
ATTTCTAAACTTTGTTTATAA,fold depletion of shRNA,[2],0.956
ATTTCTGTAAATGTAAACTGT,fold depletion of shRNA,[2],0.987
ATTTGAGGTCAAGTAAGAAGA,fold depletion of shRNA,[1],1.27
ATTTGAGTGCAGAATTTAAAT,fold depletion of shRNA,[2],1.09
ATTTGGTCAAGATTTTGAATG,fold depletion of shRNA,[1],0.479
ATTTGTAGATTTTTAATATCT,fold depletion of shRNA,[2],0.988
ATTTTAAGAAATAATATTTAT,fold depletion of shRNA,[2],0.759
ATTTTACCATATTTCTAAACT,fold depletion of shRNA,[2],0.716
ATTTTACTGGCTCAAAACTAC,fold depletion of shRNA,[2],1.52
ATTTTATCATTTATTAGCGCT,fold depletion of shRNA,[2],1.14
ATTTTGAATGCTTCCTGACAA,fold depletion of shRNA,[1],1.3
ATTTTGAGCAGGAGAGTATTA,fold depletion of shRNA,[2],1.83
ATTTTGAGGAATCTCAGACGT,fold depletion of shRNA,[1],2.34
ATTTTTAATATCTCATGATTC,fold depletion of shRNA,[2],1.2
ATTTTTCCCCCACCCCCGAAA,fold depletion of shRNA,[2],5.11
ATTTTTCTTCCAAATGCAGAA,fold depletion of shRNA,[2],0.755
ATTTTTGCCTTGGTGCTCATC,fold depletion of shRNA,[2],33.8
ATTTTTGTGAAATGAAAACAT,fold depletion of shRNA,[1],2.1
ATTTTTTTGCCCCTTGTGTTT,fold depletion of shRNA,[2],4.88

# From the supplement of paper PMC5655136
